The list shows a part of the results.
What was measured:
Assay in all cases: glycan array binding signal (z-score within array); higher = stronger binding
Conditions in all cases: glycan notation: IUPAC condensed, linker removed
[1] = target: Fuc(a1-2)Gal
In short: (§1)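 Glycan array data came from 3228 arrays in the Consortium for Functional Glycomics database, and only arrays with an available protein sequence were kept. Glycan names were put into IUPAC-condensed notation, and columns mapping to the same glycan were averaged. The binding signal is a within-array Z-score, averaged across arrays of one protein sequence run at different concentrations or buffers and across linkers. A negative Z-score can be read as non-binding.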

[2] = target: Fuc(a1-2)Gal(b1-3)GalNAc
In short: as §1

[3] = target: Fuc(a1-2)Gal(b1-3)GalNAc(a1-3)[Fuc(a1-2)]Gal(b1-4)Glc
In short: as §1

[4] = target: Fuc(a1-2)Gal(b1-3)GalNAc(a1-3)[Fuc(a1-2)]Gal(b1-4)GlcNAc
In short: as §1

[5] = target: Fuc(a1-2)Gal(b1-3)GalNAc(b1-3)Gal
In short: as §1

[6] = target: Fuc(a1-2)Gal(b1-3)GalNAc(b1-3)Gal(a1-4)Gal(b1-4)Glc
In short: as §1

[7] = target: Fuc(a1-2)Gal(b1-3)GalNAc(b1-4)[Neu5Ac(a2-3)]Gal(b1-4)Glc
In short: as §1

[8] = target: Fuc(a1-2)Gal(b1-3)GlcNAc
In short: as §1

[9] = target: Fuc(a1-2)Gal(b1-3)GlcNAc(b1-2)Man(a1-3)[Fuc(a1-2)Gal(b1-3)GlcNAc(b1-2)Man(a1-6)]Man(b1-4)GlcNAc(b1-4)GlcNAc
In short: as §1

[10] = target: Fuc(a1-2)Gal(b1-3)GlcNAc(b1-2)Man(a1-3)[Fuc(a1-2)Gal(b1-3)GlcNAc(b1-2)Man(a1-6)]Man(b1-4)GlcNAc(b1-4)[Fuc(a1-6)]GlcNAc
In short: as §1

[11] = target: Fuc(a1-2)Gal(b1-3)GlcNAc(b1-3)Gal(b1-4)Glc
In short: as §1

[12] = target: Fuc(a1-2)Gal(b1-3)GlcNAc(b1-3)GalNAc
In short: as §1

[13] = target: Fuc(a1-2)Gal(b1-3)GlcNAc(b1-3)[Fuc(a1-2)Gal(b1-3)GlcNAc(b1-6)]GalNAc
In short: as §1

[14] = target: Fuc(a1-2)Gal(b1-3)GlcNAc(b1-3)[Fuc(a1-3)[Gal(b1-4)]GlcNAc(b1-6)]Gal(b1-4)Glc
In short: as §1

[15] = target: Fuc(a1-2)Gal(b1-3)GlcNAc(b1-3)[Gal(b1-4)GlcNAc(b1-6)]Gal(b1-4)Glc
In short: as §1

[16] = target: Fuc(a1-2)Gal(b1-3)GlcNAc(b1-3)[Neu5Ac(a2-6)Gal(b1-4)GlcNAc(b1-6)]Gal(b1-4)Glc
In short: as §1

[17] = target: Fuc(a1-2)Gal(b1-3)GlcNAc6S
In short: as §1

[18] = target: Fuc(a1-2)Gal(b1-3)[Fuc(a1-4)]GlcNAc
In short: as §1

[19] = target: Fuc(a1-2)Gal(b1-3)[Fuc(a1-4)]GlcNAc(b1-2)Man(a1-3)[Fuc(a1-2)Gal(b1-3)[Fuc(a1-4)]GlcNAc(b1-2)Man(a1-6)]Man(b1-4)GlcNAc(b1-4)GlcNAc
In short: as §1

[20] = target: Fuc(a1-2)Gal(b1-3)[Fuc(a1-4)]GlcNAc(b1-2)Man(a1-6)[Fuc(a1-2)Gal(b1-3)[Fuc(a1-4)]GlcNAc(b1-2)Man(a1-3)]Man(b1-4)GlcNAc(b1-4)[Fuc(a1-6)]GlcNAc
In short: as §1

[21] = target: Fuc(a1-2)Gal(b1-3)[Fuc(a1-4)]GlcNAc(b1-3)[Fuc(a1-3)[Gal(b1-4)]GlcNAc(b1-6)]Gal(b1-4)Glc
In short: as §1

[22] = target: Fuc(a1-2)Gal(b1-3)[Fuc(a1-4)]GlcNAc(b1-3)[Gal(b1-4)GlcNAc(b1-6)]Gal(b1-4)Glc
In short: as §1

[23] = target: Fuc(a1-2)Gal(b1-4)Glc
In short: as §1

[24] = target: Fuc(a1-2)Gal(b1-4)Glc6S
In short: as §1

[25] = target: Fuc(a1-2)Gal(b1-4)GlcNAc
In short: as §1

[26] = target: Fuc(a1-2)Gal(b1-4)GlcNAc(b1-2)Man
In short: as §1

[27] = target: Fuc(a1-2)Gal(b1-4)GlcNAc(b1-2)Man(a1-3)[Fuc(a1-2)Gal(b1-4)GlcNAc(b1-2)Man(a1-6)]Man(b1-4)GlcNAc(b1-4)GlcNAc
In short: as §1

[28] = target: Fuc(a1-2)Gal(b1-4)GlcNAc(b1-2)Man(a1-3)[Fuc(a1-2)Gal(b1-4)GlcNAc(b1-2)Man(a1-6)]Man(b1-4)GlcNAc(b1-4)[Fuc(a1-6)]GlcNAc
In short: as §1

[29] = target: Fuc(a1-2)Gal(b1-4)GlcNAc(b1-2)[Fuc(a1-2)Gal(b1-4)GlcNAc(b1-4)]Man(a1-3)[Fuc(a1-2)Gal(b1-4)GlcNAc(b1-2)Man(a1-6)]Man(b1-4)GlcNAc(b1-4)GlcNAc
In short: as §1

[30] = target: Fuc(a1-2)Gal(b1-4)GlcNAc(b1-3)Gal(b1-4)GlcNAc
In short: as §1

[31] = target: Fuc(a1-2)Gal(b1-4)GlcNAc(b1-3)Gal(b1-4)GlcNAc(b1-3)Gal(b1-4)GlcNAc
In short: as §1

[32] = target: Fuc(a1-2)Gal(b1-4)GlcNAc(b1-3)GalNAc
In short: as §1

[33] = target: Fuc(a1-2)Gal(b1-4)GlcNAc(b1-3)[Fuc(a1-2)Gal(b1-4)GlcNAc(b1-6)]GalNAc
In short: as §1

[34] = target: Fuc(a1-2)Gal(b1-4)GlcNAc(b1-6)GalNAc
In short: as §1

[35] = target: Fuc(a1-2)Gal(b1-4)GlcNAc6S
In short: as §1

[36] = target: Fuc(a1-2)Gal(b1-4)[Fuc(a1-3)]GlcNAc
In short: as §1

[37] = target: Fuc(a1-2)Gal(b1-4)[Fuc(a1-3)]GlcNAc(b1-2)Man(a1-3)[Fuc(a1-2)Gal(b1-4)[Fuc(a1-3)]GlcNAc(b1-2)Man(a1-6)]Man(b1-4)GlcNAc(b1-4)GlcNAc
In short: as §1

B1: RVL (Remusatia vivipara), B5LYJ9 (protein)
chain: MAKLLLFLLPAILGLLVPRSAVALGTNYLLSGQTLDTEGHLKNGDFDLVMQDDCNLVLYNGNWQSNTANNGRDCKLTLTDYGELVIKNGDGSTVWKSGAQSVKGNYAAVVHPDGRLVVLGPSVFKIDPWVRGLNSLRFRNIPFTNNLLFSGQVLYGDGRLTAKNHQLVMQGDCNLVLYGGKYGWQSNTHGNGEHCFLRLNHKGELIIKDDDFKTIWSSRSSSKQGEYVLILQDDGFGVIYGPAIFETSSKRSIAAS
[1]
  glycan array binding signal (z-score): -0.155
[2]
  glycan array binding signal (z-score): -0.203
[3]
  glycan array binding signal (z-score): -0.167
[4]
  glycan array binding signal (z-score): -0.253
[5]
  glycan array binding signal (z-score): -0.201
[6]
  glycan array binding signal (z-score): -0.225
[7]
  glycan array binding signal (z-score): -0.119
[8]
  glycan array binding signal (z-score): -0.158
[9]
  glycan array binding signal (z-score): -0.041
[10]
  glycan array binding signal (z-score): -0.138
[11]
  glycan array binding signal (z-score): -0.256
[12]
  glycan array binding signal (z-score): -0.196
[13]
  glycan array binding signal (z-score): -0.152
[14]
  glycan array binding signal (z-score): -0.102
[15]
  glycan array binding signal (z-score): -0.223
[16]
  glycan array binding signal (z-score): 0.081
[17]
  glycan array binding signal (z-score): 0.21
[18]
  glycan array binding signal (z-score): -0.3
[19]
  glycan array binding signal (z-score): 1.29
[20]
  glycan array binding signal (z-score): 0.351
[21]
  glycan array binding signal (z-score): -0.211
[22]
  glycan array binding signal (z-score): -0.055
[23]
  glycan array binding signal (z-score): -0.2
[24]
  glycan array binding signal (z-score): -0.189
[25]
  glycan array binding signal (z-score): -0.153
[26]
  glycan array binding signal (z-score): -0.16
[27]
  glycan array binding signal (z-score): 0.207
[28]
  glycan array binding signal (z-score): 0.385
[29]
  glycan array binding signal (z-score): 0.028
[30]
  glycan array binding signal (z-score): -0.238
[31]
  glycan array binding signal (z-score): -0.272
[32]
  glycan array binding signal (z-score): 0.71
[33]
  glycan array binding signal (z-score): -0.078
[34]
  glycan array binding signal (z-score): 0.014
[35]
  glycan array binding signal (z-score): -0.122
[36]
  glycan array binding signal (z-score): -0.153
[37]
  glycan array binding signal (z-score): 0.001
